In PMC4336329 (PLoS ONE, 2015):
Out of some 310,000 compounds screened, about 14,000 (4.5%) showed an effect of 50% or more. Effects have a minus sign here. The list shows a part of the results.

Target: human ether-à-go-go-related gene (hERG) potassium channel (human, UniProt Q12809)
Assay: primary screen, population patch clamp on CHO cells stably expressing hERG
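Further: peak tail current of the secondary pulse compared with the same well before compound.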

Chain of human ether-à-go-go-related gene (hERG) potassium channel (Q12809 whole entry, looked up): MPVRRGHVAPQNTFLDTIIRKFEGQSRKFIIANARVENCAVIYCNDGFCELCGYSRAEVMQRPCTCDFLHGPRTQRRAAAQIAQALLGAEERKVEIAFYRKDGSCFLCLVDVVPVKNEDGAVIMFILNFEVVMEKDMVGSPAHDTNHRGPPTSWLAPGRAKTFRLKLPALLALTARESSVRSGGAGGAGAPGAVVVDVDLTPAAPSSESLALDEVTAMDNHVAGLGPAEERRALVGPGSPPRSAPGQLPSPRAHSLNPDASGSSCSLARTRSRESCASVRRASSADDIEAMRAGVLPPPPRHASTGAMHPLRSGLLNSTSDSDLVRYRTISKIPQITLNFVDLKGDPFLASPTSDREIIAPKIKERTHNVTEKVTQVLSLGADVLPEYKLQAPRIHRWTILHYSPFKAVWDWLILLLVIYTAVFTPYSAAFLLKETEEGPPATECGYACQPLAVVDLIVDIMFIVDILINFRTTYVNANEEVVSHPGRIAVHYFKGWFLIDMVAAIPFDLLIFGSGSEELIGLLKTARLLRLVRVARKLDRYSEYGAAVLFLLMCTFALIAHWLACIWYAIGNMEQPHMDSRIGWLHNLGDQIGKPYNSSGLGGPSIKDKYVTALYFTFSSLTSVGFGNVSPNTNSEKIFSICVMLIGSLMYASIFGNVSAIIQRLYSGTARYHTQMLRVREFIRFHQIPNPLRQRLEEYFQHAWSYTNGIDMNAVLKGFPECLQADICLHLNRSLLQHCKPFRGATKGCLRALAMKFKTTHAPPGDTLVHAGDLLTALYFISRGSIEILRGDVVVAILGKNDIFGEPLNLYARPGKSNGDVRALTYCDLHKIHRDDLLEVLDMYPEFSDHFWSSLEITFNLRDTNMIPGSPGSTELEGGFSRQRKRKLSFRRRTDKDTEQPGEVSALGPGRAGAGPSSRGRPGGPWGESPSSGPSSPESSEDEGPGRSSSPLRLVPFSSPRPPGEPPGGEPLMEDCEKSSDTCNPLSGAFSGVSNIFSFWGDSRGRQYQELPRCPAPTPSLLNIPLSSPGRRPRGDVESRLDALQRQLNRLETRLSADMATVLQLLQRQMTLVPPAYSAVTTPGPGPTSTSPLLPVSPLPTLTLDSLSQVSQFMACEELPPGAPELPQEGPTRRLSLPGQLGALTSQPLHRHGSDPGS

Compound | hERG current change (%, negative = inhibition) at 10uM [%]
O=C(Nc1cccc(-c2nc3ccccc3s2)c1)c1ccc2c(c1)OCO2 | -35.5
CC(NCC(=O)Nc1ccccc1C(=O)NC1CC1)c1cccc(C(F)(F)F)c1 (centres unmarked) | -34.5
Cc1ccc(NC(=O)CN2C(=O)CSC2=O)cc1 | 9.05
CC(Sc1nnc(Cc2ccc([N+](=O)[O-])cc2)o1)C(N)=O (centres unmarked) | -7.47
CCC(=O)N(Cc1ccco1)c1nc(C(=O)Nc2ccc(Cl)cc2)c(C)s1 | -5.99
O=C(COC(=O)/C=C/c1ccccc1Cl)NC1CCCCCC1 | 31.4
COc1ccc2[nH]cc(C(=O)CN3CC(C)CC(C)C3)c2c1 (centres unmarked) | -3.25
Cc1cccc(NC(=O)c2cc(=O)[nH]c3ccccc23)c1 | 6.25
O=C(CNC(=O)c1cccs1)NCC(=O)OCc1ccccc1Br | -12.1
COc1ccc(NS(=O)(=O)c2ccc3c(c2)Cc2ccccc2-3)cn1 | 5.85
COc1ccc(S(=O)(=O)Nc2ccc3c(c2)OCCO3)cc1OC | 11.9
COc1ccc(C(=O)N2CCN(C(=O)C3COc4ccccc4O3)CC2)cc1OC (centres unmarked) | -30.3
CCN(CC)S(=O)(=O)c1ccc(-c2csc(C)n2)s1 | -0.336
CCn1c(SCC(=O)c2cc(C)n(C)c2C)nnc1-c1ccccc1 | 3.91
CCC(C)OC(=O)C(C)Oc1ccc(-c2ccccc2)cc1 (centres unmarked) | 2.51
O=C(Nc1cccc(S(=O)(=O)Nc2ccc(Cl)cc2)c1)c1ccc[n+]([O-])c1 | 8.99
CC(NC(=O)COC(=O)CNC(=O)C1CCCCC1)c1ccccc1 (centres unmarked) | -3.81
CC(C)c1ccc(NC2CCCN(C(=O)c3ccnn3C)C2)cc1 (centres unmarked) | 1.35
COc1cccc(N2CCN(Cc3nc4ccccc4c(=O)[nH]3)CC2)c1 | -18.9
CN(C)S(=O)(=O)c1ccc(Cl)c(NC(=O)COC(=O)c2ccc3c(c2)NC(=O)CS3)c1 | -2.84
Cc1ccccc1N1CCN(C(=S)c2ccc(-c3ccc([N+](=O)[O-])cc3)o2)CC1 | 20.2
CCC(=O)Nc1nnc(SCC(=O)c2ccc3c(c2)Cc2ccccc2-3)s1 | 1.45
COC(=O)C/C=C/[C@@H](C)[C@@H](/C=N/OC[C@@H](C)[C@H](OCc1ccccc1)C(C)C)NS(=O)(=O)c1ccc(C)cc1 | 0.868

Compound | hERG current change (%, negative = inhibition) at 10uM [%]
CC(C)NC(=O)c1onc(CSc2ccncc2)c1C(=O)NC(C)C | 3.18
O=C(NCc1ccc(F)cc1)C(c1ccco1)N(C(=O)c1csnn1)c1ccccc1 (centres unmarked) | -4.77
CCCCNC(=O)CC(=O)Nc1ccccc1C(=O)O | 4.41
Cc1cc2occ(CC(=O)NC3(C)CCS(=O)(=O)C3)c2cc1C (centres unmarked) | -8.43
Cc1nnc(SCC(=O)NNC(=O)CC#N)[nH]c1=O | -7.01
COC(=O)c1ccc(-n2cnc(Cl)n2)c(F)c1 | -7.27
COc1cc(OC)cc(-c2c(-c3cccs3)c3cc(-c4cccc5[nH]ccc45)ccc3n2C)c1 | 8
CCC(C)NC(=O)c1cc(-c2cccs2)nc2ccccc12 (centres unmarked) | 22.7
CCC(C)(NC(=O)c1cccc(N2C(=O)CSC2c2ccccc2)c1)C(=O)Nc1ccccc1C (centres unmarked) | -24.3
Cc1ccccc1OCc1nc2c3cnn(C)c3ncn2n1 | 8.91
COC(=O)c1cc(NC(=O)C2C3C=CC(C3)C2C(=O)O)cc(C(=O)OC)c1 (centres unmarked) | -0.345
CCC(c1nnnn1C1CCCCC1)N1CCN(C(=O)c2ccco2)CC1.Cl (centres unmarked) | -11.4
Cc1nc(=O)c(-c2ccccc2)c(C)n1-c1ccccc1O | 3.54
CCSc1nnc([C@@H](NC(=O)OC(C)(C)C)C(C)C)o1 | 6.24
COc1ccc(C(C)(C)C)cc1S(=O)(=O)N1CCC(C(N)=O)CC1 | 13
CCN1C(=O)N(C)[C@@H](c2ccccc2)C(C(=O)OC)=C1C | -0.217
CCOc1cccc(CNCc2cccnc2)c1OCc1ccccc1.Cl | -19.7
Cn1c(NC(=O)C2c3ccccc3Oc3ccccc32)cc(=O)n(C)c1=O | -3.72
O=c1cc(NCc2ccccc2)nc2ccccn12 | 8.39
CCOC(=O)c1c(C)[nH]c(C(=O)CSc2nnc(Nc3ccccc3F)s2)c1C | -7.48
CC1(NC(=O)CCS(=O)(=O)c2ccc(Cl)cc2)CCS(=O)(=O)C1 (centres unmarked) | 10.8
CN1CCN(c2ccc([N+](=O)[O-])c(NCc3ccco3)c2)CC1 | -51.9
O=C(O/N=C1/CCSc2ccccc21)c1ccccc1 | 11.8

Compound | hERG current change (%, negative = inhibition) at 10uM [%]
O=C(NCc1ccco1)/C(=C\c1cccs1)NC(=O)c1cccs1 | 6.26
CCn1c(C(=O)NC2CCC(C)CC2)cc2sccc21 (centres unmarked) | 25.1
Cc1ccc(S(=O)(=O)NC(=O)Nc2ccccc2F)cc1 | 22.1
Cc1ccc(SC/C(O)=C(\C#N)c2nc3ccccc3s2)cc1 | 29.9
CC1(C)C2CC[C@]3(C)C(CC=C4[C@@H]5C[C@@](C)(CO)[C@@H]6C[C@@]5(CC[C@]43C)C(=O)O6)[C@@]2(C)CC[C@@H]1O (some centres unmarked) | 19.4
Cc1ccc(C(=O)CSc2ncn[nH]2)cc1 | -5.26
CC(C)(C)c1ccc(C(=O)NCCCNC(=O)c2ccccn2)cc1 | -14
Cc1cccc(Oc2ncc(-c3ccc(Cl)cc3)cn2)c1 | 5.22
COC(=O)c1ccc(C(=O)OC)c(-n2c(=O)c3ccccc3c3ccccc3c2=O)c1 | 6.43
COc1ccc(NC(=O)c2nc[nH]c2C(=O)N2CCN(C(=O)OC(C)(C)C)CC2)cc1 | -34.5
CN(C)N=Nc1ccc(S(=O)(=O)NC(Cc2ccccc2)C(=O)O)cc1 (centres unmarked) | 22.3
Cc1nc(N2CCN(c3ccccc3)CC2)nc2c1C(=O)CCC2 | -20.1
O=C(CCNS(=O)(=O)c1ccccc1)N1CCCCCC1 | 20
O=C(c1ccc2c(c1)OCO2)N1CCN(c2ccc(C(F)(F)F)cn2)CC1 | -55.6
OC[C@@H](O)[C@@H](O)CO | 5.41
O=C1NC(c2cccnc2)C(C(=O)c2cccs2)C(O)(C(F)(F)F)N1 (centres unmarked) | -7.96
O=C(CSc1nc2ccccc2o1)N1CCOCC1 | 14.6
Cc1c(Cl)cccc1NC(=O)Cn1c(-c2ccc(F)cc2)noc1=O | 35.4
CC(OC(=O)c1ccc(Cl)cc1)C(=O)NCC1CCCCC1 (centres unmarked) | -3.72
CCN1C(=O)C(CC(=O)Nc2ccccc2)N(Cc2ccccn2)C1=S (centres unmarked) | 10.7
O=C(c1ccc2c3c(cccc13)C(=O)N(O)C2=O)N1CCCCC1 | 12.4
COc1ccc(CC(=O)NCc2ccccc2)cc1OC | 11.7
COc1cc2c(cc1NC(=O)c1ccc(C(C)(C)C)cc1)CCCC2 | -4.03

Compound | hERG current change (%, negative = inhibition) at 10uM [%]
O=C(Nc1ccccc1Cc1ccccc1)c1ccc2c(c1)SC1=NS(=O)(=O)CCN12 | -5.78
Cc1cccc(C)c1NC(=O)CC1SC2=NCCN2C1=O (centres unmarked) | 8.88
Cl.O=C(O)c1ccc(CNCc2c(Cl)cccc2Cl)cc1 | -4.27
Cc1ccc(S(=O)(=O)N2CCCN(C(=O)c3cc4ccccc4[nH]3)CC2)cc1 | -36.6
O=C(CCC(=O)N1CCOc2ccccc21)NCc1ccccn1 | 12.3
CC(C)(C)NC(=O)CSc1nc(N)c(NC(=O)c2ccccc2F)c(=O)[nH]1 | 25.4
CC1CCCCC1NC(=O)CSc1nc2ccccc2[nH]1 (centres unmarked) | 6.61
Cc1nnc(SCC(=O)Nc2ncc(Cc3ccc(F)cc3)s2)n1N | 8.87
Nc1cc(=O)[nH]c(SCC(=O)Nc2ccc(F)c(Cl)c2)n1 | 7.39
COc1cccc(N2CCN(C(=O)CCSCc3ccccc3F)CC2)c1 | -57.9
COc1ccc(NC(=O)CCN2C(=O)c3ccccc3C2=O)cc1 | 12
Cc1ccc(C)c(S(=O)(=O)N/N=C/c2ccc(N(C)C)cc2)c1 | 16.1
Cc1nn(C)c(C)c1CNC(=O)c1nn2c(c1Cl)NC(c1cccs1)CC2C(F)(F)F (centres unmarked) | -18
COc1cc2c(cc1NC(=O)C(c1ccccc1)c1ccccc1)CCCC2 | 9.32
CC(=O)NS(=O)(=O)c1cccnc1Nc1ccc(Cl)c(Cl)c1 | 16.1
O=C(N/N=C/C=C/c1ccccc1[N+](=O)[O-])c1cccnc1 | 0.26
COc1ccc(CCNC(=O)COC(=O)/C=C/c2cccs2)cc1OC | 6.97
CCOC(=O)Cn1c2c(c(=N)c3ccccc31)CCC2.Cl | 4.06
O=S1(=O)N=C2CCCCCN2C(c2ccncc2)N1 (centres unmarked) | -1.1
Cc1nc2nc[nH]n2c(=O)c1NC(=O)c1c(-c2ccccc2Cl)noc1C | 4.9
